Experimental data: PubChem BioAssay AID488895 (Broad Institute, 2010)
“And” between values parts separate entries of the source, which are not always exact repeats. Equal entries are not always repeated. Hit rate of the full screen: of about 340,000 compounds, about 120 (0.035%) were called active. The inconclusive results got no clear call from the source; some entries with a clear call stand among them for comparison.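 Rule for the calls: active = mean replicate inhibition at least 50% and at least half of replicates individually reaching 50%; inconclusive = only one of the two criteria met; inactive = neither criterion met.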

Test: E. coli Tat export inhibitors, primary screen, MC4100, TorA-mCherry reporter, fluorescence, single point (AID 488895);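 note: exported cargo escapes ClpAP degradation while cytoplasmic cargo is degraded and loses fluorescence; 0% = median of neutral control wells and 100% = median of NaSCN control wells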
Settings: at 10 µM, stronger effect = higher value
For CC(=O)Nc1ccc(/C=N/N2CCCCC2)cc1, the inhibition was inconclusive: 31.6%. For O=C(Cn1c(=O)n(-c2ccc(F)cc2)c(=O)c2sccc21)NC1CCCCC1, the inhibition was inconclusive: 25.2%. In the case of COc1ccc(-c2nc(-c3ccccn3)ncc2S(C)(=O)=O)cc1, the inhibition was inactive: -6.37%. For CCn1cc(C(=O)O)c(=O)c2cnc(N3CCN(C(=S)NC(=O)c4ccccc4)CC3)nc21, the inhibition was inactive: 3.5%. In the case of Clc1ccc(-c2csc(-c3cccnc3)n2)s1, the inhibition was inconclusive: 31.5%. In the case of Cc1ccc(Nc2nc(Cl)nc(NC(C)(C)C)n2)cc1, the inhibition was inactive: 2.72%. In the case of Cc1nc(Cl)c(C(=O)NCc2ccccc2)c(C)c1Cl, the inhibition was inconclusive: 37.4%. With CSc1ccc(NC(=O)N2CCN(c3nc4ccccc4s3)CC2)cc1 the inhibition was inconclusive: 33.9%. With O=C(NCc1cccc(Cl)c1)c1cnn2c1NC(c1ccco1)CC2C(F)(F)F (configuration not stated) the inhibition was inconclusive: 32.3%. For O=C(NCc1ccc2c(c1)OCO2)c1c(O)c2cccc3c2n(c1=O)CCC3, the inhibition was inconclusive: 35.3%. For NC(=S)n1[nH]c(-c2ccccc2)c(N=Nc2ccccc2C(=O)N2CCOCC2)c1=O, the inhibition was inactive: -5.36%. With CCc1nnc(NC(=O)C2CCC2)s1 the inhibition was inconclusive: 37.8%. With CCCCC(=O)NC(c1ccc(OC)c(OC)c1)c1c(O)ccc2ccccc12 (configuration not stated) the inhibition was inactive: 4.17%. For Cc1onc(-c2c(Cl)cccc2Cl)c1C(=O)N/N=C(\N)COc1ccc(Cl)cc1, the inhibition was inactive: 5.76%. For Fc1cccc(Cl)c1-c1nnc2ccc(C(F)(F)F)cn12, the inhibition was inconclusive: 29.7%. For CCCNC(=O)c1cn(CC)c2cc(N3CCN(C)CC3)c(F)cc2c1=O, the inhibition was active: 81%. With Cc1ccc(OCC(=O)Nc2ccc3c(c2)CCC3)c([N+](=O)[O-])n1 the inhibition was inactive: -2.92%. For CCc1ccc2c(c1)cc(CN(Cc1ccco1)C(C)=O)c1nnnn12, the inhibition was inconclusive: 38.7%. With Cc1ccccc1CN1C(=O)[C@@H]2Cc3c([nH]c4ccccc34)C(C)(C)N2C1=O the inhibition was inactive: -5.42%. With COc1ccc(C(=O)N/N=C(\C)CC(=O)Nc2ccc(Cl)cn2)cc1 the inhibition was inactive: -26.7%. With COc1cc(Cc2cnc(N)nc2N)cc(OC)c1OC the inhibition was inactive: -28.7% and inactive: -28.2%. For Cc1c(Br)c([N+](=O)[O-])nn1C(C)C(=O)NCc1ccco1 (configuration not stated), the inhibition was inactive: 8.17%. With Cc1c(Cl)sn(-c2ccc(Cl)cc2)c1=O the inhibition was inconclusive: 32.1%. With CCCCN(CC)CCNS(=O)(=O)c1ccc2c(c1)oc(=O)n2C the inhibition was inconclusive: 27.6%. In the case of COCCCn1c(SCCc2ccccc2)nc2cc(OC)c(OC)cc2c1=N, the inhibition was inconclusive: 28.3%. With O=C(O)C1CCCCN1S(=O)(=O)c1ccc(Cl)s1 (configuration not stated) the inhibition was inconclusive: 28.9%. For O=S1(=O)CCO[C@H]2Cc3ccccc3[C@H]2N1Cc1ccccc1, the inhibition was inactive: -48.1%. With Fc1ccccc1-n1cn[nH]c1=S the inhibition was inactive: 3.88%. In the case of COc1cccc(COC(=O)C2CC(=O)N(Cc3ccco3)C2)c1OC (configuration not stated), the inhibition was inconclusive: 39.5%. With CC[C@@H](NC(=O)Cn1cc(C)c(=O)[nH]c1=O)c1ccccc1 the inhibition was inactive: 2.34%. For COc1ccccc1-n1c(=O)oc2ccc(Cl)cc2c1=O, the inhibition was inactive: 8.88%. With COc1ccc(CN2CSC(=S)N(Cc3ccccc3)C2)cc1 the inhibition was inconclusive: 29.5%. For CC(C)c1cc(C(N)=O)c(NC(=O)c2cccc(COc3ccc(Cl)cc3)c2)s1, the inhibition was inconclusive: 27.6%. In the case of Cc1ccc(CS(=O)(=O)CCC(=O)NCCCN2CCCC2)cc1, the inhibition was inconclusive: 25.1%. For C=CCCCCCCCC(=O)OC, the inhibition was inconclusive: 30.6%. In the case of Oc1ccc(N=Nc2ccc3c(c2)OCCO3)c2ncccc12, the inhibition was inactive: -5.87%. For C/C(Cn1nnc([N+](=O)[O-])n1)=N\NC(=O)c1ccc(O)cc1O, the inhibition was inconclusive: 31.5%. For CCn1nc(-c2ccccc2)c2nc3ccccc3nc21, the inhibition was inconclusive: 37.2%. For CC1CCN(S(=O)(=O)c2cccc(C(=O)NCc3cccs3)c2)CC1, the inhibition was inconclusive: 31.5%. In the case of CCC[C@@H]1C[C@@]1(CCC)[C@@H](NC(=O)c1ccccc1)c1ccc(C(=O)OC)cc1, the inhibition was inconclusive: 39.3%. With COc1ccccc1CN(C)CC(=O)Nc1ccc(Cl)cc1C(F)(F)F the inhibition was inactive: 9.52%. For C[C@H](NS(=O)(=O)c1ccc(Cl)c(Cl)c1)C(=O)OCc1cc(=O)n2cc(Br)ccc2n1, the inhibition was inconclusive: 25.6%. In the case of CC(C)(C)C(=O)Nc1ccc(N=Nc2ccccc2)cc1, the inhibition was inconclusive: 36.8%. For O=C(COc1ccc([N+](=O)[O-])cc1)Nc1cccc2nsnc12, the inhibition was inconclusive: 28%. For CCOC(=O)[C@H]1[C@H]2COc3ccc(OC)cc3[C@H]2N2C(=O)CN(Cc3ccccc3)C(=O)[C@@]12C, the inhibition was inconclusive: 28.5%. For O=C(/C(=C/O)N=Nc1ccccc1)c1ccc(Cl)cc1, the inhibition was inactive: 0.318%. In the case of COc1ccccc1NC(=S)NC1CC2CCC1C2 (configuration not stated), the inhibition was inconclusive: 26.6%. For CCCCCCCN(c1ccccc1)[C@@H]1C[C@H]2CCCC(=O)N3CC[C@@H](C1)[C@@H]23, the inhibition was active: 50.8%. In the case of CCOC(=O)Oc1ccc2c(=O)c(Oc3cc(C)cc(C)c3)coc2c1, the inhibition was inactive: 1.33%. In the case of O=C(Cn1nnc(-c2ccccc2)n1)N/N=C/c1cccc([N+](=O)[O-])c1O, the inhibition was inconclusive: 22.6%. In the case of Nc1nc(NCC2CCCO2)nc(Nc2cccc(Cl)c2)c1[N+](=O)[O-] (configuration not stated), the inhibition was inconclusive: 29.2%. For O=C(CCc1nc2ccccc2c(=O)[nH]1)OCC(=O)c1cccc(Cl)c1, the inhibition was inconclusive: 27.9%. With COc1ccc(N2CCN(C3CC(=O)N(c4ccc5c(c4)OCCO5)C3=O)CC2)cc1 (configuration not stated) the inhibition was inconclusive: 32.8%. With CCN(CC)CCn1c(=N)n(CC(O)COc2cccc(C)c2)c2ccccc21 (configuration not stated) the inhibition was inconclusive: 35.9%. With Cc1ccccc1C(=O)N1CCC(C(=O)Nc2ccccc2Cl)CC1 the inhibition was inconclusive: 26.8%. For Cc1nc(-c2cccc(S(=O)(=O)N3CCOCC3)c2)cs1, the inhibition was inconclusive: 29.6%. For CCCCCN(C(=O)CCC(=O)OCC(=O)N(C)Cc1ccc(C)cc1)c1c(N)n(CCCC)c(=O)[nH]c1=O, the inhibition was inconclusive: 37.9%.
